{
  "source": "the RNAGym collection of RNA variant scans (doi:10.1073/pnas.2313332121)",
  "parents": {"B1": {"name": "TPR 5TU (parent)", "chain": "GGAUCUUCUCGAUCUAACAAAAAAGACAAAUCUGCCACAAAGCUUGAGAGCAUCUUCGGAUGCAGAGGCGGCAGCCUUCGGUGGCGCGAUAGCGCCAACGUUCUCAACUAUGACACGCAAAACGCGUGCUCCGUUGAAUGGAGUUUAUCAUG"}},
  "note": "This sample is rich in variants without activity.",
  "data": [
    {"variants_of": "B1", "assay": "polymerase ribozyme fitness, log enrichment relative to wild type (log ratio); higher = more active; in vitro selection for triplet polymerase activity", "procedure,_shortened": "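For each subunit of a heterodimeric triplet polymerase ribozyme, a mutant library was built by PCR and transcribed, then taken through a single in vitro selection round in triplicate. Selection involved annealing to a biotinylated primer, the partner subunit and triplets, incubation frozen at −7 °C, gel excision of extended constructs, capture on streptavidin beads and RT-PCR. Genotypes were retained after Illumina sequencing of inputs and outputs only with ≥10 input reads and ≥1 read in each output. Fitness is defined as the logarithm of a genotype's enrichment relative to wild-type enrichment, using inverse-variance-weighted averages across replicates, with the logarithm taken to base 2.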", "values": [
      {"variant": "GGAUCUUCUCGAUCUAACAAAAAAGAGAAAUCUGCCACAAAGCUUGAGAGCAUCUUCGGAUGCAGAGGCGGUAGCCUUCGGUUGCGCGAUUGUGCCAACGUUCUCAACUAUGACACGCAAAACGCGUGCUCCGUUGAAUGGAGUUUAUCAUG", "polymerase ribozyme fitness (log ratio)": "≤ -4.2"},
      {"variant": "GGAUCUUCUCGAUCUAACAAAAAAGAGAAAUCUGCCACAAAGCUUGAGAGCAUCUUCGGAUGCAGAGGCGGCAGCAUUCGGUGGUGCGAUGGCGCCAACGUUCUGAACUAUGACACGCAAAACGCGUGCUCCGUCGAAUGGAGUUUAUCAUG", "polymerase ribozyme fitness (log ratio)": "≤ -4.2"},
      {"variant": "GGAUCUUCUCGAUCUAACAAAAAAGAGAAAUCUGCCACAAAGCUUGAGAGCAUCUUCGGAUGCAGAGGCGGCAGCUUUCGAUGGCGCGAUAGCGCCAACGUUCUCAACUAUGACACGCAAAACGCGUGCUCCGUUGAAUGGAGUUGAUCAUG", "polymerase ribozyme fitness (log ratio)": "≤ -4.2"},
      {"variant": "GGAUCUUCUCGAUCUAACAAAAAAGAGAAAUCUGCCACAAAGCUUGAGAGCAUCUUCGGAUGCAGAGGCGGCAGCCUUAAGUGGCGCGAUAGGGCCAACGUUGUCAACUAUGACACGCAAAACGCGCGCUCCGUUGAAUGGAGUUUAUCAUG", "polymerase ribozyme fitness (log ratio)": "≤ -4.2"},
      {"variant": "GGAUCUUCUCGAUCUAACAAAAAAGAGAAAUCUGCCACAAAGCUUGAGAGCAUCUUCGGAUGCAGAGGCGGCAGCCUUCGGUGGCGCGAUAGGGCCAACGUUCUCAACUAUGACACGCAAAACGCGUGCUCCGUUGAAUGGAGUUUAUCAUG", "polymerase ribozyme fitness (log ratio)": "≤ -4.2"},
      {"variant": "GGAUCUUCUCGAUCUAACAAAAAAGAGAAAUCUGCCACAAAGCUUGAGAGCAUCUUCGGAUGCAGAGGCGGCAGCCUUCGGUGGCGCGAUAGUGCCAACGUUCUCAACUAUGACACGCAAAACGCGUGCUCCGUUGAAUGCAGUUUAUCAUG", "polymerase ribozyme fitness (log ratio)": -3.68},
      {"variant": "GGAUCUUCUCGAUCUAACAAAAAAGAGAAAUCUGCCACAAAGCUUGAGAGCAUCUUCGGAUGCAGAGGCGGCAGCCUUCGGUGGCGCGAUAGUGCCAACGUUCUCAACUAUGACACGCAAAACGCGUGCUCCGUUGAAUGGAGUGUAUCAUG", "polymerase ribozyme fitness (log ratio)": "≤ -4.2"},
      {"variant": "GGAUCUUCUCGAUCUAACAAAAAAGAGAAAUCUGCCACAAAGCUUGAGAGCAUCUUCGGAUGCAGAGGCGGCAGCCUUCGGUGGCGCGAUAGCGUCAACGUUCUCAACUAUGACAAGCAUAACGCGUGCUCCGUUGAAUGGAGUUUAUCAUG", "polymerase ribozyme fitness (log ratio)": "≤ -4.2"},
      {"variant": "GGAUCUUCUCGAUCUAACAAAAAAGAGAAAUCUGCCACAAAGCUUGAGAGCAUCUUCGGAUGCAGAGGCGGCAGCCUUCGGUGGCGCGAUAGCGCUAACGUUCUCGACUAUGACACGCAAAACGCGUGCUCCGUUGAAUGGAGUUUAUCAUG", "polymerase ribozyme fitness (log ratio)": -4},
      {"variant": "GGAUCUUCUCGAUCUAACAAAAAAGAGAAAUCUCCCACAAAGUUUGAGAGCAUCUUCGGAUGCAGAGGCGGCAGCCUUCGGUGGCGCGAUAGCGCCAACGUUAUCAACUAUGACACGCAAAACGCGUGCUCCGUUGAAUGGAUUUUAUCAUG", "polymerase ribozyme fitness (log ratio)": "≤ -4.2"},
      {"variant": "GGAUCUUCUCGAUCUAACAAAAAAGAGAAAUCUUCCACAAAGCUUGAGAGCAUCUUCGGAUGCAGAGGCGGCAGCCUUCGGUGGCGCGAUAGCGCGAACGUUCUCAACUGUGACAUGGAAAACGCGUGCUCCGUUGAGUGGAGUUUAUCAUG", "polymerase ribozyme fitness (log ratio)": "≤ -4.2"},
      {"variant": "GGAUCUUCUCGAUCUAACAAAAAAGAGAAAUCUGCCACAAAGCUUGACAGCAUCUUCGGAUGCAGGGGCGGCAGCCUUCGGUGGCGCGAUAGCGCCAACGUUCUCAACUAUGACACGCAAAACGCGUGCUCCGUUGAAAUGAGUUUAUCAUG", "polymerase ribozyme fitness (log ratio)": "≤ -4.2"},
      {"variant": "GGAUCUUCUCGAUCUAACAAAAAAGAGAAAUCUGCCACAAAGCUUGAGAACAUCUUCGGAUGCAGAGGCGGCAGCCUUCGGUGGCGCGAUAGCGCCAAGGUGCUCAACUAUGACACGCAAAACGCGUGCUCCGUUGAAUGCAGUUUAUCAUG", "polymerase ribozyme fitness (log ratio)": "≤ -4.2"},
      {"variant": "GGAUCUUCUCGAUCUAACAAAAAAGAGAAAUCUGCCACAAAGCUUGAGACCAUCUUCGGAUGCAGAGGCGGCAGUCUUCGGUCGCGCGAUAGCGCGAACGUUCUCAACUAUGACACGCAAAACGCGUGCUCCGUUGAAUGGAGUUUAUCAUG", "polymerase ribozyme fitness (log ratio)": "≤ -4.2"},
      {"variant": "GGAUCUUCUCGAUCUAACAAAAAAGAGAAAUCUGCCACAAAGCUUGAGAGCAUCUUCAGAUGCAGAGGCGGCAGCCUUCGGUGGCGCGAUAGAGGCAACGUUCUCAACUAUGACACGCAAAACGCGUGCUCCGUUGAAUGGAGUUUAUCAUG", "polymerase ribozyme fitness (log ratio)": "≤ -4.2"},
      {"variant": "GGAUCUUCUCGAUCUAACAAAAAAGAGAAAUCUGCCACAAAGCUUGAGAGCAUCUUCCGAUGCAGAGGCGUCAGCCUUCGGUGGCGCGAUAGCGCCAACGUUCUUAACUAUGACACGCAAAACGCGUGCUCCGUUGAAUGGAGUUUAUCAUG", "polymerase ribozyme fitness (log ratio)": "≤ -4.2"},
      {"variant": "GGAUCUUCUCGAUCUAACAAAAAAGAGAAAUCUGCCACAAAGCUUGAGAGCAUCUUCGGAUGCAGAGGCGGCAGCCUUCGAUGUCGCGAUAGCGCCAACGUUCUCAACUAUGACACGCAAAACGCGUGCUCCGUUUAAUGGAGUUUAUCAUG", "polymerase ribozyme fitness (log ratio)": "≤ -4.2"},
      {"variant": "GGAUCUUCUCGAUCUAACAAAAAAGAGAAAUCUGCCACAAAGCUUGAGAGCAUCUUCGGAUGCAGAGGCGGCAGCCUUCGGUAGCGCGCUAGCGCCAACGUUCUCAACUAUGACACGCAAAACGCGUGCUCCGUUGAAUGGAGUUUAUCAUG", "polymerase ribozyme fitness (log ratio)": -3.98},
      {"variant": "GGAUCUUCUCGAUCUAACAAAAAAGAGAAAUCUGCCACAAAGCUUGAGAGCAUCUUCGGAUGCAGAGGCGGCAGCCUUCGGUGACGCGAUACCGCCAACGUUCUCAACUAUGACACGCAAAACGCGUGCUCCGUUGAAUGGAGUUUAUCAUG", "polymerase ribozyme fitness (log ratio)": "≤ -4.2"}
    ]}
  ]
}
